Data on one substance can be found in article PMC4068158.

By UniProt entry, the sequences of proteins in these tests, tags left out. Where a name states a change or a piece, a line headed by the entry shows the natural chain unless it says otherwise. Chains listed by the source or under a name are the forms on record and can include a tag or linker. Residues count along the entry.
Flag-FAF1 wild type (Q9UNN5, residues 2-650): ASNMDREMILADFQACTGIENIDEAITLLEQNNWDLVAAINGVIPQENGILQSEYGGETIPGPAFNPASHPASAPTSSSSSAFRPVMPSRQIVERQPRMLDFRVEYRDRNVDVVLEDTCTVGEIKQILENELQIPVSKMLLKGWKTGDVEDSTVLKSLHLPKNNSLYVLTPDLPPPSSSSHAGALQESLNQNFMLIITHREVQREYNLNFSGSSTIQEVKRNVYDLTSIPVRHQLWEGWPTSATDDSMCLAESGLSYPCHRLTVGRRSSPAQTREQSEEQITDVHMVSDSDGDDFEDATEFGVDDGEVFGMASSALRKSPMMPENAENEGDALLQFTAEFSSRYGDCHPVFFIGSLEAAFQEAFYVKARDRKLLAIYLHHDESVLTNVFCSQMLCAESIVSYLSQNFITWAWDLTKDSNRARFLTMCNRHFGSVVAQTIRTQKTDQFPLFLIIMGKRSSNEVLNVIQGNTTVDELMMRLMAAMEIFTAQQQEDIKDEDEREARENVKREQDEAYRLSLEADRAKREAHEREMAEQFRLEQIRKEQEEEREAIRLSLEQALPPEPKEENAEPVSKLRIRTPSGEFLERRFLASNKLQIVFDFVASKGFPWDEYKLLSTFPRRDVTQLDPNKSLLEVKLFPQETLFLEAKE
Flag-FAF1 with deletion of residues 293 to 301 (Q9UNN5, form named): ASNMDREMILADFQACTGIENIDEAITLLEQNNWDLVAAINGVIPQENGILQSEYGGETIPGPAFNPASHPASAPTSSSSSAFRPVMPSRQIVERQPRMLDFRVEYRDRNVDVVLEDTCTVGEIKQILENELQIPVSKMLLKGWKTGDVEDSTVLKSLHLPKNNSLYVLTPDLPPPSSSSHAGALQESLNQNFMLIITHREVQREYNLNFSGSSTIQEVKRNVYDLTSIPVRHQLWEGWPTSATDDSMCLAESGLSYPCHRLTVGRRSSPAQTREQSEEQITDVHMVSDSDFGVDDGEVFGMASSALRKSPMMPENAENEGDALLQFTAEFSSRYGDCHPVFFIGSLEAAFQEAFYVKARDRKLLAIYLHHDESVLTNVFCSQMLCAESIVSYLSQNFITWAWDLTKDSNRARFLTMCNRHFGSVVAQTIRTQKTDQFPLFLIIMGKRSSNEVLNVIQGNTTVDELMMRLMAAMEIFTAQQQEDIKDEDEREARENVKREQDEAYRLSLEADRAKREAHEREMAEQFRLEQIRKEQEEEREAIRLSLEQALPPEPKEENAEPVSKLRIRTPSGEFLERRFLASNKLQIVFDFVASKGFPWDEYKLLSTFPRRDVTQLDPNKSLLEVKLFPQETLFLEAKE
UniProt O43681: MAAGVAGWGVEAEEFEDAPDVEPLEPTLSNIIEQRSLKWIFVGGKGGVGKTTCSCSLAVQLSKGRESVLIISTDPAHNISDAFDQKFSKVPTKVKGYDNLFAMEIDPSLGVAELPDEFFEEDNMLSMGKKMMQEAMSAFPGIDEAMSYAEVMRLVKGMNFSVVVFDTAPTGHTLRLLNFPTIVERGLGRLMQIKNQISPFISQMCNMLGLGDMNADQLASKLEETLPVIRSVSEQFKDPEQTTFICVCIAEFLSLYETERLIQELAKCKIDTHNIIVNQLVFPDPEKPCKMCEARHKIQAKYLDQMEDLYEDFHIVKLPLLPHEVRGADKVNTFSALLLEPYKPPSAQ
UniProt O95292: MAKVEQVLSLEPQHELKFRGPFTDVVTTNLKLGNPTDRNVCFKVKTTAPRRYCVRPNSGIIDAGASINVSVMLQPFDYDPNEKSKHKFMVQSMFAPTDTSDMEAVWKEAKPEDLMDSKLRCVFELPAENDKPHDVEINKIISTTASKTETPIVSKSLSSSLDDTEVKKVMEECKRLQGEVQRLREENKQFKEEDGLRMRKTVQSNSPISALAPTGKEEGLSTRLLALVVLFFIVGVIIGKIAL

Test [1] addresses Flag-FAF1 wild type (human) (UniProt Q9UNN5). Briefly: co-IP; anti-Flag M2 beads on lysates of U2OS cells expressing the Flag-tagged bait (transfected or tetracycline-induced); buffer A (50 mM HEPES/KOH pH 7.2, 5 mM Mg(OAc)2, 70 mM KOAc, 0.2% Triton X-100, 10% glycerol, 0.2 mM EDTA), 4°C, 2 hr; endogenous prey by immunoblot; cells untreated, treated with MG132 or with siRNA (FAF1, p97, ASNA1, luciferase) as indicated. (In general: In western blotting, separated proteins are transferred to a membrane and probed.)

In test [2] the target is Flag-ASNA1 F15A (human) (UniProt O43681). Described as above.
In test [3] the target is Flag-FAF1 with deletion of residues 293 to 301 (human) (UniProt Q9UNN5). The description is as above.
In test [4] the target is T1, Flag-WDR44 wild type (human) (UniProt Q5JSH3).
T1 sequence: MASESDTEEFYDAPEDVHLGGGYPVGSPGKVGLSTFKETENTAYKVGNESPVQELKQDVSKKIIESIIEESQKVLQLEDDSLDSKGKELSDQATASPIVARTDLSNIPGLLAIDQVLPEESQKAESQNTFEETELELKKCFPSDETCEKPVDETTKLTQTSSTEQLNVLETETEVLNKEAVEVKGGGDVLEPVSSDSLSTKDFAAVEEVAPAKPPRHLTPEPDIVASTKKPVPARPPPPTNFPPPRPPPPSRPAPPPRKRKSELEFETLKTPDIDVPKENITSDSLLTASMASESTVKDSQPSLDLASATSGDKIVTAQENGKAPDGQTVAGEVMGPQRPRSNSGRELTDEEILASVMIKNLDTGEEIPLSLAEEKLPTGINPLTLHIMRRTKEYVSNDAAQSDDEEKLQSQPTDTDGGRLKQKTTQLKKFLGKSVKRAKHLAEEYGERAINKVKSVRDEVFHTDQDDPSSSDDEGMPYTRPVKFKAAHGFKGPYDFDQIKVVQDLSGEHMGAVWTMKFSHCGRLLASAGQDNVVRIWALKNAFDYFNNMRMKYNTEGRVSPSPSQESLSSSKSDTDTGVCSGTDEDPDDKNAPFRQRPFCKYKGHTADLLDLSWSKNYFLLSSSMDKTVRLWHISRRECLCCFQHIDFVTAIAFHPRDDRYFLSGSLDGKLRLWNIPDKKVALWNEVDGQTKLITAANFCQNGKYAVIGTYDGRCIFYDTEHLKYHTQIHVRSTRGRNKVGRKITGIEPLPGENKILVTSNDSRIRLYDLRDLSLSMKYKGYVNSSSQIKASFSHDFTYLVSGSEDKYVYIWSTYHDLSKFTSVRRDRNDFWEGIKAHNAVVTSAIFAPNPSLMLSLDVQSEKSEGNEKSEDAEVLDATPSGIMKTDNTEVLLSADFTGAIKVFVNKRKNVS
The test is described as above.

The target of test [5] is Flag-ASNA1 wild type (human) (UniProt O43681). Briefly: co-IP; anti-Flag beads on lysates of SH-SY5Y cells expressing wild-type or mutant Flag-ASNA1; cells treated with MG132 (untreated lanes beside them); immunoblot.
Test [6] addresses Flag-ASNA1 G46R (human) (UniProt O43681). Described as above.
Test [7] has as its target Flag-ASNA1 G46A (human) (UniProt O43681). Described as above.

Results are given in words; binding and its absence hold for the method and conditions named. In cells and extracts the contact can be indirect. Some binding calls cover weakened binding; strength is not graded here. For some of these results: Tags and fused reporters may be left off the sequences shown.

As to “endogenous VAPB (human cells) (from UniProt O95292 1-243)”, the binding entry is on record as “binds” in test [1]; “no binding” in test [2]; “no binding” in test [3]; “binds” in test [4]; “binds” in test [5]; “binds” in test [6]. In addition, the binding entry in test [7] is “binds”.
